Results on 85 compounds are retold here after PubChem BioAssay AID1346428 (National Center for Advancing Translational Sciences (NCATS), 2018).

Hit rate of the full screen: of about 48,000 compounds, about 1,200 (2.5%) were called active. About 2% were inconclusive and are not listed.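 The calls were made as follows: active = activation of at least 60% and not above a set upper limit (about 1 call in 100 departs from these limits); inconclusive = activation of 40% to 60%, or above that upper limit; inactive = activation under 40%.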 Some of the results follow.

The target of the assay is Probable G-protein coupled receptor 32 (Homo sapiens) (UniProt O75388). Kind of assay: qHTS for Agonists of Human Resolvin D1 Receptor DRV1. Also: 0% is about no effect. Conditions: CHO-K1 GPR32 beta-arrestin PathHunter luminescence, 90 min; at 76.9 µM; active compounds read high; zero percent set by DMSO-only wells. An outline of the steps: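 GPR32 activation in stably transfected CHO-K1 cells, detected as beta-arrestin recruitment by enzyme-fragment complementation. Compound exposure: 90 min, 37 °C.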
UniProt O75388, sequence (O75388 whole entry, looked up, the tested form may be a part): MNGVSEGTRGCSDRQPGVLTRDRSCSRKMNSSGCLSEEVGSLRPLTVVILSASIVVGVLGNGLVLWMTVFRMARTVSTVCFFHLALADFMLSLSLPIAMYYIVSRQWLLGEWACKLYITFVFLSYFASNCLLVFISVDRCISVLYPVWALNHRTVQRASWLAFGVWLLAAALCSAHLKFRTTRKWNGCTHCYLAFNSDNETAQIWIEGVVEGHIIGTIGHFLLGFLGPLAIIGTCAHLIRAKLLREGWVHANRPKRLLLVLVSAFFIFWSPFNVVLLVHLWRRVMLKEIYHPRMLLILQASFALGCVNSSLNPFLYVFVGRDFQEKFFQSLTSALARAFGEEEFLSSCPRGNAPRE
(Quantitative high-throughput screening tests each substance at several concentrations.)
For the compound `COc1cccc(CN2C(=O)c3ccccc3Sc3ccc(C(=O)OCc4ccco4)cc32)c1`, the activation was inactive: -12.5%.
`CC(C)(C)c1ccc(-c2nc(NC(=O)CSc3ncnc4sc5c(c34)CCCC5)ns2)cc1`: the activation was inactive: -22.7%.
Regarding `Cc1ccc(-n2ccn(CC(=O)NCCc3ccccc3)c(=O)c2=O)cc1C`, the activation was inactive: 4.08%.
As to `CCCCOc1ccc(C(=O)N(Cc2ccc(N(C)C)cc2)Cc2ccco2)cc1`, the activation was inactive: -41.2%.
Consider `CCSc1nc2n(n1)C(c1ccc(Cl)cc1Cl)C(C(=O)Nc1ccccc1C)=C(C)N2` (stereo not given), for which the activation is inactive: 36%.
`COc1ccc(N2CC(NC(=O)/C=C\c3ccc4c(c3)OCO4)CC2=O)cc1OC` (stereo not given): the activation was inactive: -0.278%.
With `CCc1ccc(NC(=O)CSc2nccn2-c2ccc(F)cc2)cc1`, the activation is inactive: -7.82%.
The result for `COc1ccc(NC(=O)CN(C)S(=O)(=O)c2ccc3c(c2)CCCN3C(C)=O)cc1` reads inactive: -7.88%; that for `O=S(=O)(Nc1cccc(C(F)(F)F)c1)c1ccc(-c2cnc(C3CC3)o2)cc1`, inactive: -34.6%; that for `Cc1ccc(-n2nnc(-c3nc(-c4cccs4)no3)c2N)c(C)c1`, inactive: -1.41%.
With `CC(C)c1ccc(OCC(=O)Nc2c(C(=O)c3ccc(F)cc3)oc3ccccc23)cc1`, the activation is inactive: 16.3%.
The result for `COc1ccc(S(=O)(=O)c2c(C(=O)c3ccc(C)c(C)c3)cnc3ccc(F)cc23)cc1` reads inactive: -23.1%.
Consider `COc1ccccc1CNC(=O)Cn1ncn2c(cc3sccc32)c1=O`, for which the activation was inactive: -5.21%.
Consider `Cc1ccc(Nc2c(-c3ccsc3)nc3c(C)cccn23)cc1`, for which the activation is inactive: 7.24%.
As to `CCCCCSc1nc2sc3c(c2c(=O)n1-c1ccc(OC)cc1)CCN(C(C)=O)C3`, the activation was inactive: 47.2%.
Next, `COc1ccccc1NC(=O)CC(c1cc(OC)c(OC)c(OC)c1)N1Cc2ccccc2C1=O` (stereo not given): inactive: 15.1%; `COc1ccc(S(=O)(=O)NCc2cccn2Cc2cccc(C)c2)cc1`: inactive: -8.53%.
Next, `CC(C)NCC(O)COc1cccc2ccccc12` (stereo not given): inactive: 1.42%; `COc1cc2c(cc1NC(=O)COc1ccc(Cl)cc1Br)oc1ccccc12`: inactive: 0.692%.
Turning to `CCOC(=O)CSc1nnc2n(-c3ccccc3)c(=O)c3c4c(sc3n12)CC(C(C)(C)C)CC4` (stereo not given), the activation is inactive: -41.5%.
Regarding `Cc1c(C)n(C)c2ccc(C(=O)NCc3cccc(F)c3)cc12`, the activation was inactive: -17.1%.
As for `Cn1ccc2c(OCC(=O)NCc3ccccc3)cccc2c1=O`, the activation was inactive: 8%.
With `COCCNC(=O)c1c[nH]c2ccc(S(=O)(=O)Nc3ccc(F)cc3F)cc2c1=O`, the activation is inactive: -12.8%.
As to `COc1ccccc1CNS(=O)(=O)c1ccc(-c2cnc(C3CC3)o2)cc1`, the activation was inactive: 18.2%.
With `CCc1ccccc1NC(=O)CCOc1ccccc1`, the activation was inactive: 6.82%.
Take `Cc1ccc(N2CC(NC(=O)c3cc4ccccc4o3)CC2=O)cc1C` (stereo not given): the activation was inactive: -9.81%.
Consider `CC(C)c1nn2c(=O)cc(COC(=O)c3cccc(NC(=O)c4cccs4)c3)nc2s1`, for which the activation was inactive: -24.9%.
Turning to `CCCOc1ccc(-c2nonc2NC(=O)c2cc(OC)c(OC)c(OC)c2)cc1OCCC`, the activation is inactive: -18.5%.
In the case of `CCc1ccc(C2=NN(CCC(=O)NCCc3ccc(OC)c(OC)c3)C(=O)CC2)cc1`, the activation was inactive: -16.2%.
`Cc1ccccc1C(=O)Nc1ccc2nc(SCC(=O)N3CCc4ccccc43)sc2c1`: the activation is inactive: 11.4%.
In the case of `COc1ccc(CNC(=O)c2ccc3c(c2)N(Cc2ccc(C)cc2)CCS3)cc1`, the activation was inactive: -20.3%.
Regarding `COc1ccc(CSc2nc3ccncc3n2CC(=O)Nc2ccc(C)c(F)c2)cc1`, the activation is inactive: -5.47%.
Next, `CCc1ccccc1NC(=O)Cn1c(=O)n(-c2ccc(CC(=O)NCC3CCCO3)cc2)c(=O)c2ccccc21` (stereo not given): inactive: -15.7%; `CCOC(=O)c1cnc2nc(NCc3cccc(Br)c3)[nH]n2c1=O`: inactive: 25.6%; `Cc1cc(C)cc(-n2ccn(Cc3ccccc3C)c(=O)c2=O)c1`: inactive: -26.3%.
Regarding `COc1ccc(CCNC(=O)CCS(=O)(=O)c2cc(Br)cc3c2N(C(C)=O)CC3)cc1OC`, the activation is inactive: 1.12%.
Turning to `Cc1cc(C)cc(NC(=O)C2CCCN2S(=O)(=O)c2ccc3c(c2)CCCC(=O)N3)c1` (stereo not given), the activation was inactive: 48.8%.
Take `COc1ccccc1CNC(=O)CC(c1ccc(C)cc1)N1Cc2ccccc2C1=O` (stereo not given): the activation is inactive: -0.956%.
Take `COc1ccc2c(c1)Cc1sc(NC(=O)c3cccc(C)c3)nc1-2`: the activation was inactive: -60.3%.
The result for `Cc1ccc(CNC(=O)C2COc3ccccc3C2)cc1` (stereo not given) reads inactive: -14.5%; that for `Clc1ccc(-c2nc3c4cnn(-c5ccccc5Br)c4ncn3n2)c(Cl)c1`, inactive: -0.228%.
As for `COC(=O)CSc1nc2sc3c(c2c(=O)n1-c1ccccc1C)CC(C)(C)OC3`, the activation was inactive: -1.98%.
The result for `Cc1oc(-c2ccc(C(=O)NCCC(C)C)cc2)nc1CN1CCc2ccccc21` reads inactive: -0.688%.
On to `Cc1ccccc1NC(=O)c1sc2nc3n(c(=O)c2c1C)CCC3`, for which the activation was inactive: -6.62%.
Consider `CCc1ccc(NS(=O)(=O)c2cc(-c3cnc(C4CC4)o3)ccc2C)cc1`, for which the activation was inactive: -20.7%.
Next, `Cc1ccc(OCC(=O)OC2=C(C(=O)c3ccccc3)N(C)S(=O)(=O)c3ccccc32)cc1`: inactive: -67.2%.
`COc1cc(C(=O)NC(c2ccc(Cl)cc2)c2cc(Cl)c3cccnc3c2O)cc(OC)c1OC` (stereo not given): the activation was inactive: -33.6%.
As for `CCc1cccc(C)c1NC(=O)CN1CCCN(Cc2ccccc2Cl)S1(=O)=O`, the activation is inactive: -6.83%.
Turning to `COc1cc(C2c3c(-c4ccccc4O)n[nH]c3C(=O)N2Cc2ccco2)ccc1OCC(C)C` (stereo not given), the activation is inactive: 12.3%.
In the case of `CCOc1ccccc1NC(=O)C(CC)n1c(C(=O)OC)cc2occc21` (stereo not given), the activation is inactive: -41.9%.
Take `O=C(Cn1ncc2ccsc2c1=O)N1CCN(c2ccccc2F)CC1`: the activation is inactive: -13%.
For the compound `CCCCN(CC)CCNC(=O)C1CCCN(S(=O)(=O)c2cccc3nsnc23)C1` (stereo not given), the activation is inactive: -11.4%.
As to `COc1ccc(N(C(=O)/C=C\C(=O)Nc2ccc(C)cc2)C(C(=O)NCc2ccco2)c2ccc(C)cc2)cc1` (stereo not given), the activation was inactive: -20.4%.
As to `CCCn1c(=NC(=O)c2cc3ccccc3o2)c(C(=O)OCC)cc2c(=O)n3ccccc3nc21`, the activation is inactive: -5.12%.
Consider `COc1ccc(Nc2oc(/C=C/c3cccc(OC)c3)nc2C#N)cc1`, for which the activation is inactive: 11%.
Take `Cc1c(C(=O)N2CCCCCC2)c(S(=O)(=O)N(Cc2ccccc2)C(C)(C)C)c(C)n1C`: the activation is inactive: -9.54%.
In the case of `O=S(=O)(c1ccc(-n2cnnn2)cc1)N1CCN(c2cccc(Cl)c2)CC1`, the activation is inactive: 5.95%.
The result for `O=c1cc(-c2ccccc2)n2c(SCc3c(F)cccc3Cl)nnc2[nH]1` reads inactive: -9.94%; that for `Cc1ccc(-n2c(=O)c3cccnc3n2CC(=O)Nc2cc(Cl)ccc2C)cc1`, inactive: -1.59%; that for `COc1ccccc1OCC(=O)NCC(c1ccc(Cl)cc1)N1CCOCC1` (stereo not given), inactive: -7.97%.
As for `Cc1ccc(C)c(CN2C(=O)c3ccccc3S(=O)c3ccc(C(=O)N4CCN(c5cccc(Cl)c5)CC4)cc32)c1` (stereo not given), the activation was inactive: -1.6%.
In the case of `Cc1ccc(NC(=O)Cn2c(=O)n(CCCCC(=O)NCc3ccccc3Cl)c(=O)c3ccccc32)cc1`, the activation was inactive: 11.7%.
Consider `Cc1ccc(NC(=O)C(=O)NCc2ccco2)cc1`, for which the activation was inactive: 26.2%.
The result for `Cc1ccc(NC(=O)CN(C)S(=O)(=O)c2cnc[nH]2)cc1` reads inactive: 6%.
For `CC(C)CC(=O)NC1(C(F)(F)F)C(=O)Nc2c1c(=O)[nH]c(=O)n2-c1ccccc1` (stereo not given), the activation was inactive: -4.95%.
Take `COc1ccc(C(CC(=O)NCc2ccccc2Cl)N2Cc3ccccc3C2=O)cc1OC` (stereo not given): the activation is inactive: 0.706%.
`CCCc1nn2c(=O)cc(COc3ccc(/C=C(\C#N)C(=O)Nc4ccccc4)cc3)nc2s1`: the activation is inactive: 21%.
Regarding `COC(=O)c1cc2sc(Cl)cc2n1Cc1cc(C)ccc1C`, the activation is inactive: -20.5%.
Turning to `CCOc1ccc(CNC(=O)CCCc2cn(C)c3ccccc23)cc1OC`, the activation was inactive: -21.4%.
With `CCOc1cc2sc(N3CCC(C(=O)Nc4cc(C)cc(C)c4)CC3)nc2cc1Br`, the activation was inactive: 3.1%.
As to `Cc1cc(=O)c2cc(C(=O)Nc3ccccc3C)ccc2[nH]1`, the activation was inactive: -3.27%.
Next, `CCc1ccccc1NC(=O)Cn1c2ncccc2c(=O)n1-c1ccccc1`: inactive: -8.92%; `COc1ccc(Cn2ccc3nc(C)c(C(=O)NCc4cccc(OC)c4)cc3c2=O)cc1`: inactive: -12.4%; `Cc1ccc(-n2nc3c(=O)n(CC(=O)NCC(C)c4ccccc4)nc(C)c3c2C)cc1` (stereo not given): inactive: 27.1%.
Next, `COC(=O)c1ccc(CSc2nnc3ccc4ccccc4n23)cc1`: inactive: -3.84%; `COc1cc(F)c(S(=O)(=O)Nc2c(C)n(C)n(-c3ccccc3)c2=O)cc1OC`: inactive: -4.13%; `CCn1cc2c(n1)-c1c(oc(C(=O)Nc3cccc(C(F)(F)F)c3)c1C)CC2`: inactive: 16.2%.
For the compound `COc1ccccc1Cn1cc(C(=O)c2ccc(C)cc2)c(=O)c2cc3c(cc21)OCCO3`, the activation was inactive: 43.1%.
The result for `COc1ccc(CCNC(=O)CCCCn2c(=O)c3ccccc3n(Cc3ccccc3Cl)c2=O)cc1OC` reads inactive: -0.485%; that for `CCCN(Cc1cccs1)C(=O)Nc1cc(OC)ccc1OC`, inactive: -15.8%.
Next, `Cc1ccc(N(C)C(=O)c2cc(S(=O)(=O)N3CCOCC3)cn2C)cc1`: inactive: -14.7%; `O=C(CN1CCSc2ccccc21)N1CCN(c2ccc(F)cc2)CC1`: inactive: -22.4%; `COc1ccc(C(=O)Nc2ccc(C(=O)OCc3cc(=O)n4nc(C5CC5)sc4n3)cc2)cc1`: inactive: 3.74%.
Next, `COc1ccccc1-c1noc(CCCC(=O)Nc2cc(C)ccc2C)n1`: inactive: -4.86%.
For `CC(=O)c1ccc(NC(=O)CCOc2ccccc2)cc1`, the activation was inactive: -11%.
